For 15 variants, cAMP reporter score and surface expression score results are on record in the GPR68 mutational scans of Howard et al. (2025).

Scores with a large standard error are left out. Two further conditions of the source, in which the scores hardly spread, are not listed. Read del as a deletion of the residues named and ins as an insertion between two positions. For part of these data: The data file names ogerin without a concentration.

First the molecules themselves.
B1: GPR68, Q15743 (parent)
chain: MGNITADNSSMSCTIDHTIHQTLAPVVYVTVLVVGFPANCLSLYFGYLQIKARNELGVYLCNLTVADLFYICSLPFWLQYVLQHDNWSHGDLSCQVCGILLYENIYISVGFLCCISVDRYLAVAHPFRFHQFRTLKAAVGVSVVIWAKELLTSIYFLMHEEVIEDENQHRVCFEHYPIQAWQRAINYYRFLVGFLFPICLLLASYQGILRAVRRSHGTQKSRKDQIQRLVLSTVVIFLACFLPYHVLLLVRSVWEASCDFAKGVFNAYHFSLLLTSFNCVADPVLYCFVSETTHRDLARLRGACLAFLTCSRTGRAREAYPLGAPEASGKSGAQGEEPELLTKLHPAFQTPNSPGSGGFPTGRLA

Series [1] covers variants of B1. The series can be described thus: cAMP reporter score (Enrich2 score, wild type = 0); higher = more signal; HEK293T, FACS bins.
Variants of B1 are the subject of series [2]. The series can be described thus: surface expression score (Enrich2 score, wild type = 0); higher = more signal; HEK293T, FACS bins.

Take G323_A324del: the cAMP reporter score in series [1] (pH 5.5) is 0.884; in series [1] (pH 6), 0.3; in series [1] (pH 6, modulator: ogerin) it was 0.998; in series [1] (pH 6.5, modulator: ogerin), 0.758. The surface expression score in series [2] is -0.239.
The corresponding values for G323_P325del are 0.37, 0.354, 0.423, 0.628 and 0.02.
Y320_L322del: the cAMP reporter score in series [1] (pH 5.5) worked out at 0.775; in series [1] (pH 6) it was 0.359; in series [1] (pH 6, modulator: ogerin), 0.851. For the same variant, in series [2], the surface expression score worked out at 1.4.
As for G323del, the cAMP reporter score worked out at 0.899 in series [1] (pH 5.5); 0.669 in series [1] (pH 6, modulator: ogerin); 1.12 in series [1] (pH 6.5, modulator: ogerin). Besides, in series [2], the surface expression score is 0.273.
Consider P321_L322insG, for which the cAMP reporter score was 0.644 in series [1] (pH 5.5); -0.197 in series [1] (pH 6); 0.697 in series [1] (pH 6, modulator: ogerin); -0.262 in series [1] (pH 6.5, modulator: ogerin). In series [2], the surface expression score turned out to be 0.568.
The corresponding values for G323_A324insG are -1.02, 0.165, -0.358, 0.37 and -0.261.
The corresponding values for MGNITADNSSMSCTIDHTIHQTLAPVVYVTVLVVGFPANCLSLYFGYLQIKARNELGVYLCNLTVADLFYICSLPFWLQYVLQHDNWSHGDLSCQVCGILLYENIYISVGFLCCISVDRYLAVAHPFRFHQFRTLKAAVGVSVVIWAKELLTSIYFLMHEEVIEDENQHRVCFEHYPIQAWQRAINYYRFLVGFLFPICLLLASYQGILRAVRRSHGTQKSRKDQIQRLVLSTVVIFLACFLPYHVLLLVRSVWEASCDFAKGVFNAYHFSLLLTSFNCVADPVLYCFVSETTHRDLARLRGACLAFLTCSRTGRAREAYPLGDPEASGKSGAQGEEPELLTKLHPAFQTPNSPGSGGFPTGRLA [A324D] are -0.64, 0.028, -0.789, 0.343 and -0.173.
For the variant MGNITADNSSMSCTIDHTIHQTLAPVVYVTVLVVGFPANCLSLYFGYLQIKARNELGVYLCNLTVADLFYICSLPFWLQYVLQHDNWSHGDLSCQVCGILLYENIYISVGFLCCISVDRYLAVAHPFRFHQFRTLKAAVGVSVVIWAKELLTSIYFLMHEEVIEDENQHRVCFEHYPIQAWQRAINYYRFLVGFLFPICLLLASYQGILRAVRRSHGTQKSRKDQIQRLVLSTVVIFLACFLPYHVLLLVRSVWEASCDFAKGVFNAYHFSLLLTSFNCVADPVLYCFVSETTHRDLARLRGACLAFLTCSRTGRAREAYPLGCPEASGKSGAQGEEPELLTKLHPAFQTPNSPGSGGFPTGRLA [A324C], the cAMP reporter score is 0.382 in series [1] (pH 5.5); -0.669 in series [1] (pH 6, modulator: ogerin); 0.602 in series [1] (pH 6.5, modulator: ogerin).
With P321del, the cAMP reporter score was found to be 1.3 in series [1] (pH 5.5); 0.247 in series [1] (pH 6); 1.14 in series [1] (pH 6, modulator: ogerin); 1.03 in series [1] (pH 6.5, modulator: ogerin). Further, the surface expression score in series [2] worked out at 0.053.
Consider L322del, for which the cAMP reporter score in series [1] (pH 5.5) was -1.12; in series [1] (pH 6, modulator: ogerin) it was -0.6; in series [1] (pH 6.5, modulator: ogerin), 1.08. The surface expression score in series [2] is 1.26.
For the variant MGNITADNSSMSCTIDHTIHQTLAPVVYVTVLVVGFPANCLSLYFGYLQIKARNELGVYLCNLTVADLFYICSLPFWLQYVLQHDNWSHGDLSCQVCGILLYENIYISVGFLCCISVDRYLAVAHPFRFHQFRTLKAAVGVSVVIWAKELLTSIYFLMHEEVIEDENQHRVCFEHYPIQAWQRAINYYRFLVGFLFPICLLLASYQGILRAVRRSHGTQKSRKDQIQRLVLSTVVIFLACFLPYHVLLLVRSVWEASCDFAKGVFNAYHFSLLLTSFNCVADPVLYCFVSETTHRDLARLRGACLAFLTCSRTGRAREWYPLGAPEASGKSGAQGEEPELLTKLHPAFQTPNSPGSGGFPTGRLA [A319W], the cAMP reporter score in series [1] (pH 5.5) was 0.303; in series [1] (pH 6), -0.787; in series [1] (pH 6, modulator: ogerin), -0.281; in series [1] (pH 6.5, modulator: ogerin), -0.427.
MGNITADNSSMSCTIDHTIHQTLAPVVYVTVLVVGFPANCLSLYFGYLQIKARNELGVYLCNLTVADLFYICSLPFWLQYVLQHDNWSHGDLSCQVCGILLYENIYISVGFLCCISVDRYLAVAHPFRFHQFRTLKAAVGVSVVIWAKELLTSIYFLMHEEVIEDENQHRVCFEHYPIQAWQRAINYYRFLVGFLFPICLLLASYQGILRAVRRSHGTQKSRKDQIQRLVLSTVVIFLACFLPYHVLLLVRSVWEASCDFAKGVFNAYHFSLLLTSFNCVADPVLYCFVSETTHRDLARLRGACLAFLTCSRTGRAREYYPLGAPEASGKSGAQGEEPELLTKLHPAFQTPNSPGSGGFPTGRLA [A319Y]: the cAMP reporter score is -0.196 in series [1] (pH 5.5); -0.945 in series [1] (pH 6); -1.43 in series [1] (pH 6, modulator: ogerin); -0.991 in series [1] (pH 6.5, modulator: ogerin). In addition, the surface expression score in series [2] is -1.64.
Regarding A319_Y320insGSG, the cAMP reporter score in series [1] (pH 5.5) came out at 0.646; in series [1] (pH 6), 1.18; in series [1] (pH 6, modulator: ogerin), 0.906; in series [1] (pH 6.5, modulator: ogerin), 0.372. Moreover, the surface expression score in series [2] came out at 0.396.
On to P321_L322insGSG, for which the cAMP reporter score in series [1] (pH 5.5) came out at 0.319; in series [1] (pH 6) it was 0.106; in series [1] (pH 6, modulator: ogerin) it was 1.27; in series [1] (pH 6.5, modulator: ogerin) it was 0.342. Moreover, the surface expression score in series [2] amounted to 0.971.
Regarding A319del, the cAMP reporter score was 0.568 in series [1] (pH 5.5); 0.699 in series [1] (pH 6); 0.909 in series [1] (pH 6, modulator: ogerin); 0.784 in series [1] (pH 6.5, modulator: ogerin). Also, the surface expression score in series [2] is 1.14.
